# Several values for one entry are separate records, joined by “and”; a condition that tells them apart may be missing. Equal values may be shown once. The inconclusive results got no clear call from the source; some entries with a clear call stand among them for comparison. For some assays here: Potencies beside an inconclusive call are fits to weak or partial responses and may not hold up. The source holds several records for some structures; these can differ, active in one and inactive in another. Activity calls are given as the source filed them. Unless noted, calls come from the whole dose curve; as a rule, active = well fitted curve in the direction sought with a large enough effect in the repeat runs; inconclusive = weak or mixed curves; inactive = no such curve, though single readings can be large; an effect the other way counts as inactive or inconclusive.
# Experiments:
# [1] = qHTS assay for small molecule agonists of the p53 signaling pathway (AID 651631; calls by dose curve; note: nearly all actives have a fitted effect of over 15% in size); settings: HCT-116 p53RE-bla reporter, beta-lactamase FRET ratio, 16 h; activation: at 73.3 µM (top of the series) unless noted
# In short: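 HCT-116 p53RE-bla reporter line, 16 h compound treatment at 37 °C, then fluorescence after 2 h with B/G FRET substrate.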
# [2] = qHTS assay for small molecule agonists of the p53 signaling pathway - cell viability (AID 651633; calls by dose curve; note: nearly all actives have a fitted effect of over 30% in size); settings: p53RE-bla HCT-116 viability, ATP luminescence, 16 h; series mostly up to 83.3 µM
# In short: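 p53RE-bla cells were treated with compound for 16 hours at 37 C. Cytotoxicity was then measured as CellTiter-Glo luminescence after 30 min at room temperature.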
# [3] = target: Glucocorticoid receptor (Homo sapiens) (UniProt P04150); experiment: qHTS assay to identify small molecule antagonists of the glucocorticoid receptor (GR) signaling pathway (AID 720692; active = well fitted inhibition curve with a large enough effect in the signal ratio in the repeat runs, not every such curve was filed as active; inconclusive = weak or mixed curves, or effect the other way; inactive = no such curve, though single readings can be large or run the other way; the % refers to the signal ratio); settings: GR-bla HeLa, beta-lactamase FRET ratio, dexamethasone-stimulated, 18 h; series mostly up to 58.5 µM
# In short: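 HeLa GR-bla cells; cmpd + dex 5 nM final, 18 h 37 C; LiveBLAzer B/G FRET substrate 2 h RT; fluorescence intensity read. Antagonist mode, qHTS.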
# [4] = qHTS assay for identifying genotoxic compounds that show differential cytotoxicity against isogenic chicken DT40 cell lines with known DNA damage response pathways - wild type cell line (AID 743012); settings: DT40 wild type chicken cells viability, CellTiter-Glo, 40 h; activity change, negative = cytotoxicity: at 68.4 µM (top of the series) unless noted; note: nearly all actives have a fitted effect of over 60% in size
# In short: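 Wild type DT40, 300 cells/well, ~0.5 h settle at 37 C/5% CO2; compounds in DMSO added by pintool; 40 h at 37 C/5% CO2; CellTiter-Glo, 30 min RT; luminescence.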
# [5] = qHTS assay to identify small molecule antagonists of the androgen receptor (AR) signaling pathway - cell viability counter screen (AID 743033; note: nearly all actives have a fitted effect of over 45% in size); settings: AR-bla HEK293 viability, CellTiter-Glo luminescence, 16 h; activity change, negative = cytotoxicity: at 58.5 µM (top of the series)
# [6] = qHTS assay for small molecules that induce genotoxicity in human embryonic kidney cells expressing luciferase-tagged ATAD5 - cell viability (AID 651634; calls by dose curve; note: nearly all actives have a fitted effect of over 25% in size); settings: HEK293T ATAD5-luc cells viability, CellTiter-Fluor, 15.5 h; series mostly up to 83.3 µM
# In short: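 Fluorescence from CellTiter-Fluor, reporting protease activity within live cells, served as the viability read-out. HEK293T cells carrying luciferase-tagged ATAD5 had been treated with compound for 15.5 hr at 37C.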
# [7] = qHTS assay for small molecule disruptors of the mitochondrial membrane potential - cell viability (AID 720634; calls by dose curve; note: nearly all actives have a fitted effect of over 20% in size); settings: HepG2 viability, ATP luminescence (CellTiter-Glo), 1 h; series mostly up to 83.2 µM
# In short: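 Cells: HepG2, 2,000/well, attached overnight. Compound 1 hr, 37 C/5% CO2. +m-MPI dye, +CellTiter-Glo 30 min RT. Readout: luminescence (ATP).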
# [8] = qHTS assay for small molecule disruptors of the mitochondrial membrane potential (AID 720635); settings: HepG2 mitochondrial membrane potential, Mito-MPS dye ratio; series mostly up to 83.2 µM
# In short: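 HepG2 cells exposed to compound 1 hr at 37C, then Mito-MPS dye 30 min. Ratio read of aggregate (540/590 nm) versus monomer (490/535 nm) fluorescence.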
# [9] = target: Glucocorticoid receptor (Homo sapiens) (UniProt P04150); experiment: qHTS assay to identify small molecule agonists of the glucocorticoid receptor (GR) signaling pathway (AID 720691; active = well fitted activation curve with a large enough effect in the signal ratio in the repeat runs, not every such curve was filed as active; inconclusive = weak or mixed curves, or effect the other way; inactive = no such curve, though single readings can be large or run the other way; the % refers to the signal ratio); settings: GR-bla HeLa, beta-lactamase reporter ratio, 18 h; activation: at 62.4 µM (top of the series) unless noted
# In short: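 Fluorescence intensity from LiveBLAzer B/G FRET substrate (2 h, room temperature) reports beta-lactamase expression driven by the glucocorticoid response element in GR-bla HeLa cells after 18 h compound exposure at 37 C.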
# [10] = qHTS assay to identify small molecule antagonists of the glucocorticoid receptor (GR) signaling pathway - cell viability counter screen (AID 720693); settings: GR-bla HeLa viability, CellTiter-Glo luminescence, 18 h, with 5 nM dexamethasone present; series mostly up to 58.5 µM; note: nearly all actives have a fitted effect of over 55% in size
# [11] = qHTS assay for identifying genotoxic compounds that show differential cytotoxicity against isogenic chicken DT40 cell lines with known DNA damage response pathways - Rev3 mutant cell line (AID 743014); settings: chicken DT40 Rev3-/- viability, CellTiter-Glo, 40 h; series mostly up to 68.4 µM; note: nearly all actives have a fitted effect of over 55% in size
# [12] = qHTS assay to test for compound auto fluorescence at 460 nm (blue) in HepG2 cells (AID 720687); settings: autofluorescence 405/460 nm, 1 h; series mostly up to 91.3 µM
# In short: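 HepG2 cells in MEM with 10% FBS, attached overnight at 37 C, were exposed to compound or DMSO for 1 hr at 37 C, 5% CO2. Blue fluorescence was read at 405/460 nm, with triamterene as reference fluorophore.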
# [13] = qHTS assay for identifying genotoxic compounds that show differential cytotoxicity against isogenic chicken DT40 cell lines with known DNA damage response pathways - Rad54/Ku70 mutant cell line (AID 743015); settings: DT40 Rad54/Ku70 mutant viability, CellTiter-Glo, 40 h; activity change, negative = cytotoxicity: at 66.8 µM (top of the series); note: nearly all actives have a fitted effect of over 60% in size
# [14] = qHTS assay to test for compound auto fluorescence at 535 nm (green) in HepG2 cells (AID 720675); settings: green autofluorescence 485/535 nm, 1 h; series mostly up to 91.3 µM
# [15] = qHTS assay to test for compound auto fluorescence at 460 nm (blue) in HEK293 cells (AID 720678); settings: blue autofluorescence 405/460 nm; series mostly up to 91.3 µM
# In short: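 Blue-channel (Ex/Em 405/460 nm) intensity measured in HEK293 cultures after overnight compound exposure at 37C; signal expressed relative to triamterene. Cells plated 2,000 per well in 10% dialyzed FBS medium and allowed 4-5 hr to attach.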
# [16] = qHTS assay to test for compound auto fluorescence at 460 nm (blue) in HEK293 cell free culture (AID 720681); settings: cell-free medium, autofluorescence 405/460 nm (blue); series mostly up to 91.3 µM
# In short: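 Compounds were added to cell-free DMEM with 10% FBS and fluorescence read directly. The blue channel used 405 nm excitation and 460 nm emission, with triamterene as the reference fluorophore.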
# [17] = qHTS assay to test for compound auto fluorescence at 460 nm (blue) in HepG2 cell free culture (AID 720685); settings: Cell-free culture medium, blue autofluorescence 405/460 nm; series mostly up to 91.3 µM
# In short: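 Compound (23 nL) or DMSO pinned into cell-free MEM with 10% FBS; blue fluorescence read at 405/460 nm excitation/emission, expressed as auto-fluorescence equivalency to triamterene.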
# [18] = qHTS assay to test for compound auto fluorescence at 535 nm (green) in HepG2 cell free culture (AID 720686); settings: Cell-free medium, green autofluorescence 485/535 nm
# Potency is the fitted concentration of half-maximal effect; tags give direction and shape of the fitted curve or compound fluorescence and quenching.
# Sequence of UniProt P04150 (P04150 whole entry, looked up): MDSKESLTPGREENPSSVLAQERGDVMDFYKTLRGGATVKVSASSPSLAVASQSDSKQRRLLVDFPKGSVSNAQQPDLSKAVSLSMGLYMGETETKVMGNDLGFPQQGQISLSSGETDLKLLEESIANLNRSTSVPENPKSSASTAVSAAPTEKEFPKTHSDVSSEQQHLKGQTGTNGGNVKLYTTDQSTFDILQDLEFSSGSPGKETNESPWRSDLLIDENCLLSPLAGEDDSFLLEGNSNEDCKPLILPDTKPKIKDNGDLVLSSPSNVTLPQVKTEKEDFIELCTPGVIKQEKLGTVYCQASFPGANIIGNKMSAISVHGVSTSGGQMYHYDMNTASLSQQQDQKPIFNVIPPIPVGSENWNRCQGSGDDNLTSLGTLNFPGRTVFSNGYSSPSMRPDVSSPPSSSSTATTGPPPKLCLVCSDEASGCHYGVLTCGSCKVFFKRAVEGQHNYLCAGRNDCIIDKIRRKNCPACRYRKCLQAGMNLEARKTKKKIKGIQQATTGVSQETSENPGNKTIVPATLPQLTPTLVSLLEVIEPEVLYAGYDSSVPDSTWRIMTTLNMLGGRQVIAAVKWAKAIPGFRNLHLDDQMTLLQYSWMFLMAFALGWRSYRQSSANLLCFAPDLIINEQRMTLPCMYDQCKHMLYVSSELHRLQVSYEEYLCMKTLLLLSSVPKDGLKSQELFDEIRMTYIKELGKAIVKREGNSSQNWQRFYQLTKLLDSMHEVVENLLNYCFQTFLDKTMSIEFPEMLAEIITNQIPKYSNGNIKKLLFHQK
structure (smiles),measurement,setting,value
CCC(C)c1cc([N+](=O)[O-])cc([N+](=O)[O-])c1OC(=O)C=C(C)C (stereo unspecified),Potency,[1],active: 12.2 µM
same,Potency,[2],"inconclusive: 19.3 µM [cytotoxic, partial curve]"
same,Potency,[3],active: 19.5 µM
same,Potency,[4],active: 21.7 µM
same,Potency,[5],"inconclusive: 19.5 µM [cytotoxic, partial curve]"
FC(F)C(F)(F)OCC(Cn1cncn1)c1ccc(Cl)cc1Cl (stereo unspecified),Potency,[1],"inconclusive: 76.5 µM [falling, partial curve, poor fit]"
same,Potency,[6],inconclusive: 68.2 µM
same,Potency,[7],"inconclusive: 27.1 µM [cytotoxic, partial curve]"
same,Potency,[8],active: 48.3 µM
same,Potency,[3],"inconclusive: 61.3 µM [inhibitor, single point]"
same,Potency,[5],active: 54.6 µM
CC(c1ccc(O)cc1)(c1ccc(O)cc1)c1ccc(O)cc1,Potency,[1],active: 6.86 µM
same,Potency,[2],active: 6.86 µM
same,Potency,[9],"inconclusive: 43.6 µM [cytotoxic, partial curve]"
CC1(C)[C@H](/C=C2\CCSC2=O)[C@@H]1C(=O)OCc1coc(Cc2ccccc2)c1,Potency,[1],"inconclusive: 54.5 µM [falling, partial curve]"
same,Potency,[6],inactive
same,Potency,[8],active: 21.7 µM
same,Potency,[3],"inconclusive: 43.6 µM [inhibitor, partial curve]"
same,Potency,[4],active: 6.86 µM
CC(=O)[O][Pb]([c]1ccccc1)([c]1ccccc1)[c]1ccccc1,Potency,[1],"inconclusive: 6.11 µM [cytotoxic, full curve]"
same,Potency,[2],active: 2.73 µM
same,Potency,[8],active: 1.09 µM
same,Potency,[9],"inconclusive: 12.3 µM [falling, full curve]"
same,Potency,[3],"inconclusive: 15.5 µM [cytotoxic, full curve]"
same,Potency,[10],active: 776 nM
same,Potency,[11],active: 122 nM
NC1CCC(CC2CCC(N)CC2)CC1 (stereo unspecified),Potency,[1],"inconclusive: 26.8 µM [activator, partial curve, poor fit]"
same,Potency,[6],"inconclusive: 67.4 µM [falling, partial curve, poor fit]"
same,Potency,[8],inactive
same,Potency,[12],inactive
same,Potency,[4],"inconclusive: 75.6 µM [cytotoxic, single point]"
same,Potency,[11],inconclusive: 67400 nM [cytotoxic]
same,Potency,[13],"inconclusive: 60.1 µM [cytotoxic, single point]"
CN1C[C@H](C(=O)N[C@]2(C)O[C@@]3(O)[C@@H]4CCCN4C(=O)[C@H](Cc4ccccc4)N3C2=O)C=C2c3cccc4[nH]cc(c34)C[C@H]21,Potency,[1],"inconclusive: 15 µM [cytotoxic, full curve] and inconclusive: 27.4 µM [cytotoxic, partial curve] and inconclusive: 22.6 µM [cytotoxic, partial curve, poor fit]"
same,Potency,[6],"inconclusive: 7.73 µM [falling, partial curve, poor fit]"
same,Potency,[14],"inconclusive: 39.8 µM [rising, partial curve, poor fit]"
same,Potency,[15],"inconclusive: 44.7 µM [fluorescent, partial curve]"
same,Potency,[16],"inconclusive: 39.8 µM [rising, partial curve, poor fit]"
same,Potency,[17],"inconclusive: 39.8 µM [fluorescent, partial curve]"
same,Potency,[18],"inconclusive: 50.1 µM [fluorescent, partial curve, poor fit]"
same,Potency,[12],"inconclusive: 39.8 µM [fluorescent, partial curve]"
same,Potency,[5],"inconclusive: 22 µM [cytotoxic, partial curve]"
CC(C)OC(=O)C(O)(c1ccc(Cl)cc1)c1ccc(Cl)cc1,Potency,[1],inconclusive: 77 µM [activator]
same,Potency,[2],"inconclusive: 68.6 µM [cytotoxic, single point]"
same,Potency,[7],"inconclusive: 43.3 µM [cytotoxic, partial curve, poor fit]"
same,Potency,[3],active: 30.9 µM
same,Potency,[5],"inconclusive: 43.6 µM [cytotoxic, partial curve]"
CCC(C)(C)c1ccc(O)c(C(C)(C)CC)c1,Potency,[1],"inconclusive: 24.1 µM [cytotoxic] and inconclusive: 27.3 µM [cytotoxic, full curve]"
same,Potency,[6],"inconclusive: 68.6 µM [falling, single point]"
same,Potency,[7],"active: 6.04 µM and inconclusive: 30.6 µM [cytotoxic, partial curve, poor fit]"
same,Potency,[8],active: 1.52 µM and active: 1.37 µM
same,Potency,[9],"inconclusive: 12.2 µM [cytotoxic, full curve] and inconclusive: 12.3 µM [cytotoxic, full curve]"
same,Potency,[3],"inconclusive: 19.3 µM [cytotoxic, full curve] and inconclusive: 19.5 µM [cytotoxic, full curve]"
same,Potency,[10],active: 19.3 µM and active: 19.5 µM
same,Potency,[11],"inconclusive: 13.5 µM [cytotoxic, full curve] and active: 27.3 µM"
same,Potency,[5],active: 54.4 µM and inconclusive: 13.8 µM [cytotoxic]

# Reference: PubChem BioAssay (Tox21)
